# Assay results taken from PubChem BioAssay AID485344 (National Center for Advancing Translational Sciences (NCATS), 2010).
# Among all 340,000 compounds or so, about 6,900 (2%) were called active. Cut-off read from the data, not from the text of the source: active = inhibition above about 30%; inactive = below that, where a call was filed. This is a selection; strong and weak results do not stand in their true shares. Where no call is shown, the source filed none.
# Target: D(2) dopamine receptor (Homo sapiens) (UniProt P14416)
# Assay: HTS Assay for Allosteric Antagonists of the Human D2 Dopamine Receptor: Primary Screen for Antagonists; note: 0% is about no effect
# Conditions: HEK293 TREx D2 cells, calcium flux, dopamine EC80; at 10 µM; stronger effect = higher value
# Outline: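 Antagonism is scored as inhibition of an EC80 dopamine-evoked calcium signal in a force-coupled, tetracycline-inducible HEK293 T-REx D2 line, with compound present 180 s before agonist.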
# Chain of UniProt P14416 (P14416 whole entry, looked up): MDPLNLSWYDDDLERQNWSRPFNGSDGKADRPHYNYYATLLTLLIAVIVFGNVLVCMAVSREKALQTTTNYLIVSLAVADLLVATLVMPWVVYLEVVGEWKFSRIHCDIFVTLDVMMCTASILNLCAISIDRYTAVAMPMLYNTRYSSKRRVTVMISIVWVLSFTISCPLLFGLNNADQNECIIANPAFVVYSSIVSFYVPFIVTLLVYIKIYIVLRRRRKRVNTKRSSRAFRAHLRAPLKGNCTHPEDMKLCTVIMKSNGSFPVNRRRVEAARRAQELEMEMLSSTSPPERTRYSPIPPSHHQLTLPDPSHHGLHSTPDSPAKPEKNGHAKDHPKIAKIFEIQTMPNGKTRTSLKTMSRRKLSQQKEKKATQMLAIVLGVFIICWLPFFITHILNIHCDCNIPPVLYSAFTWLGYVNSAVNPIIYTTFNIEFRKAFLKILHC
row,SMILES,inhibition
1,COC(=O)c1c(NC(=O)Nc2ccc(Cl)cc2)sc(C)c1C,26.3%
2,CCC(C)NC(=O)c1ccc(NC(=O)C2=C(C)OCCS2)cc1 (stereo not given),active: 43.9%
3,CN(C)c1ccc(NC(=O)Cn2cc(S(=O)(=O)Cc3cccc(Cl)c3)c3ccccc32)cc1,-4.28%
4,Cc1nc2scc(C)n2c(=O)c1S(=O)(=O)N1CCN(c2cccc(C(F)(F)F)c2)CC1,-6.15%
5,Cc1ccc2c(c1)c(N1CCCC1=O)c(C(=O)Nc1ccc(F)cc1F)n2C,3.56%
6,Cc1cccc(N(C)c2ccc3cc(S(=O)(=O)N4CCCC4)ccc3n2)c1,3.54%
7,CCC(=O)N1CCc2cc(S(=O)(=O)NC(Cc3ccccc3)C(=O)Nc3cccc(OC)c3)ccc21 (stereo not given),3.66%
8,COc1cccc(N2CCN(c3ncnc4onc(-c5ccc(F)cc5)c34)CC2)c1,-5.12%
9,Cc1ccc(S(=O)(=O)c2nnn3c2nc(N2CCCC2)c2sccc23)cc1,-19.6%
10,Cc1ccc(-c2nnc3c4ccccc4c(C)nn23)cc1NC(=O)c1ccccc1Cl,-4.6%
11,CCOC(=O)c1cc(S(=O)(=O)N2CCN(c3ccc(C)cc3C)CC2)[nH]n1,3.4%
12,Cc1ccc(C)c(NC(=O)CSC2=Nc3ccccc3N=C(c3ccc(F)cc3)C2)c1,8.94%
13,O=C(CCCCCn1c(=O)[nH]c2ccccc2c1=O)NCc1ccccc1,3.31%
14,O=C(C1CCCN(S(=O)(=O)c2cccc3nsnc23)C1)N1CCN(c2ccccc2Cl)CC1 (stereo not given),-5.95%
15,Cc1ccccc1Cn1c(CN2CCCC(C)C2)nc2c1c(=O)n(C)c(=O)n2C (stereo not given),1.4%
16,Cn1c(=O)cc(OCC(=O)NCCCN2CCN(c3ccccc3F)CC2)c2ccccc21,active: 78.2%
17,CC(C)(C)C1CCC(C(=O)Nc2ccc(N3CCOCC3)cc2N2CCOCC2)CC1 (stereo not given),active: 31.4%
18,CCc1cccc(C)c1NC(=O)c1cccc(C(=O)Nc2c(C)cccc2CC)c1,3.96%
19,CCOc1ccc(C(=O)c2cn(CC(=O)Nc3ccc(Cl)cc3)c3cc4c(cc3c2=O)OCCO4)cc1,13.2%
20,Cc1ccc(C)c(N2CCN(C(=O)c3noc4c3CCCCC4)CC2)c1,-4.48%

row,SMILES,inhibition
1,CCOc1ccccc1NC(=O)Cn1c(=O)n(-c2cccc(C)c2)c(=O)c2c1c1cc(OC)ccc1n2C,-1.63%
2,COc1ccc(OC)c(NC(=O)/C=C/c2ccc(C)o2)c1,-5.62%
3,COc1ccc(C2C=C(c3ccccc3)Nc3nc(NS(=O)(=O)c4ccc(Cl)cc4)nn32)cc1 (stereo not given),8.36%
4,O=C(Cn1c(=O)n(CC2CCC(C(=O)NCCc3ccccc3)CC2)c(=O)c2ccccc21)Nc1cccc(F)c1 (stereo not given),13.5%
5,CC(=O)c1cc2c(cc1N/C(=N/S(=O)(=O)c1ccc(Br)cc1)c1ccccc1)OCO2,4.22%
6,COc1ccc(C(=O)Cn2c(=O)c(-c3cc(C)ccc3NC(C)=O)nc3ccccc32)cc1,25.9%
7,O=C(COc1ccccc1)NC1CC(=O)N(c2ccc3c(c2)OCCO3)C1 (stereo not given),4.4%
8,COC(=O)c1ccccc1NC(=O)N1CCc2c(sc3c2CCCC3)C1c1ccc(F)cc1 (stereo not given),5.17%
9,CC(C)CC(=O)Nc1c(C(=O)N2CCN(c3ccccc3)CC2)oc2ccccc12,-12.5%
10,CCc1ccc(OCC(=O)N/N=C(\C)c2ccc(O)cc2O)cc1,active: 44.9%
11,O=C(COc1ccccc1[N+](=O)[O-])N(Cc1ccco1)c1ccccn1,20.1%
12,COc1ccc(C)cc1NC(=O)N1CCCn2nc(C)cc21,2.74%
13,O=C(C1CCC1)N1CCc2cc(S(=O)(=O)NCc3ccc(F)cc3)ccc21,8.01%
14,CC(C)n1c(=N)c(C(=O)NCc2ccccc2)cc2c(=O)n3ccccc3nc21,-13.2%
15,COc1cc(NC(=O)c2cc(S(=O)(=O)N3CCc4ccccc43)cn2C)cc(OC)c1OC,19.6%
16,CC(=O)Nc1cccc(NC(=O)CSc2nnc(Cc3cccn3C)n2-c2ccc(F)cc2)c1,active: 48.8%
17,COc1ccc(OC)c(NC(=O)c2cnn(-c3ccc(C)cc3)c2C2CCNCC2)c1,11.6%
18,CC(=O)c1cccc(NC(=O)c2noc3c2CCCC3)c1,-2.18%
19,CCc1ccccc1N(C)C(=O)c1cc2c(=O)oc3ccccc3c2s1,10.3%
20,O=C(CN1CCC(NC(=O)C2CC2)CC1)Nc1cccc(F)c1,active: 31.5%

row,SMILES,inhibition
1,Cc1ccc(N2C(=O)CSC23C(=O)N(CC(=O)Nc2ccc(C(C)C)cc2)c2ccccc23)cc1C (stereo not given),-9.15%
2,O=C(Nc1cccnc1Cl)c1cc(-c2cccc(Cl)c2)on1,-7.13%
3,CCOc1ccc(CCNC(=O)CCc2cn(Cc3ccc(F)cc3)c3ccccc23)cc1,-4.58%
4,COc1ccc(-n2nc(C(=O)Nc3cccc(C)n3)c3c4ccccc4n(C)c3c2=O)cc1Cl,7.36%
5,COc1cccc(NC(=O)C(Cc2ccccc2)NS(=O)(=O)c2ccc3c(c2)oc(=O)n3C)c1 (stereo not given),-7.73%
6,Cc1coc2cc3oc(=O)c(CC(=O)NCCc4ccccc4)c(C)c3cc12,-1.94%
7,CCOc1ccc(NC(=O)Cn2cc(C(=O)c3ccco3)c3ccccc32)cc1,2.58%
8,COc1ccccc1CNC(=O)CCCNS(=O)(=O)c1cccc2nsnc12,active: 42.4%
9,CCn1c(=O)cc(OCC(=O)Nc2cc(Cl)c(OC)cc2OC)c2ccccc21,4.04%
10,CCOc1ccc(CCNC(=O)c2cc3c(-c4ccc(OC)c(OC)c4)nn(C)c3s2)cc1OCC,7.28%
11,CCCN(CCC)C(=O)c1c2c(nc3ccccc13)C(=O)N(C1CCCCC1)C2,1.36%
12,Cc1cc(S(=O)(=O)C(CNC(=O)COc2ccc(Cl)cc2)c2cccs2)ccc1F (stereo not given),3.61%
13,Cc1ccc(CCNC(=O)C2CCN(Cc3nc(-c4ccccc4C)oc3C)CC2)cc1,-7.87%
14,CC(=O)NCC(=O)N(Cc1ccco1)C1(C(=O)NC2CCCCC2)CCCCC1,active: 72.5%
15,Brc1ccc(-n2nc(-c3ccccc3)c3cnc4cc5c(cc4c32)OCO5)cc1,2.29%
16,COc1ccc(OC)c(CCNc2nc3ccccc3c3nc(-c4cccnc4)nn23)c1,13.9%
17,Cc1ccc2[nH]c(CSc3nnc(NC(=O)c4ccc(Cl)cc4)s3)cc(=O)c2c1,-4.69%
18,CCc1ccccc1NC(=O)CSc1nnc2ccc3ccccc3n12,-1.26%
19,Cc1cccc(N2CCN(S(=O)(=O)c3cc(C(=O)Nc4ccccc4Cl)ccc3F)CC2)c1C,-17%
20,O=C(CSCc1cc(=O)c2cc(F)ccc2[nH]1)Nc1ccccc1Cl,10.3%
